Reference: PubChem BioAssay AID1159614 (National Center for Advancing Translational Sciences (NCATS), 2016)
Hit rate of the full screen: of about 45,000 compounds, about 65 (0.1%) were called active. The call rests on the fitted dose curve; in most records, active means well fitted activation curve with a large enough effect; inconclusive means small, poorly fitted or top-dose-only effect; inactive means no such curve, though single readings can be large or run the other way. Some of the results follow.

These compounds were tested against Galactocerebrosidase (Homo sapiens) (UniProt P54803) (assay: A Novel Cell-Based Assay to Identify Small Molecules for B -Galactocerebrosidase). Settings: 145M-Twi-hGALC-G270D cells (Twitcher mouse brain line with human GALC G270D), HMU-beta-Gal fluorescence, 48 h; series mostly up to 57.5 µM; activation: at the top concentration.
UniProt P54803, sequence (P54803 whole entry, looked up): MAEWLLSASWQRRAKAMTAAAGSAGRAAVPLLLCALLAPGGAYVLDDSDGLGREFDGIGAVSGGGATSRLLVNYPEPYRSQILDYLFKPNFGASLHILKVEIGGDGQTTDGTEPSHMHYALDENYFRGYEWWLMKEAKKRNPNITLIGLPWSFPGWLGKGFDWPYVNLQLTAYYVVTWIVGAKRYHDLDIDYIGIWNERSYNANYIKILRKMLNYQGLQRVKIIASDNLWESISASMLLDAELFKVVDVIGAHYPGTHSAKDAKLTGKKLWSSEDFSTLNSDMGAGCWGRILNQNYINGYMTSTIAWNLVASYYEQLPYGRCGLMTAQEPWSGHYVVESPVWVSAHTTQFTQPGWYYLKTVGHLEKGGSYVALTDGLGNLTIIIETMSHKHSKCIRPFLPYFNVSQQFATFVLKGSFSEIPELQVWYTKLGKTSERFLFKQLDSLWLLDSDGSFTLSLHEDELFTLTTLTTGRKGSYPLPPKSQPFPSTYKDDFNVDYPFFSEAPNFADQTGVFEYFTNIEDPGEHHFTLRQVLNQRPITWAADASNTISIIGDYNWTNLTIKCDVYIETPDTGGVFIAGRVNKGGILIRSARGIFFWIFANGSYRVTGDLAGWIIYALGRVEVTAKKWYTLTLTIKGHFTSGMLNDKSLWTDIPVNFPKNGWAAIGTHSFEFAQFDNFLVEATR
Method in brief: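 Fluorogenic HMU-b-Gal hydrolysis (0.1 mM final, pH 5.2 citrate-phosphate with 1 mg/mL sodium taurocholate; carbonate stop buffer) measures mutant GALC activity after compound treatment of live 145M-Twi Twitcher brain cells stably carrying human GALC-G270D, with wild-type GALC line alongside; activation sought.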
Further: 0% is about no effect; nearly all actives have a fitted effect of over 65% in size.

activation, inactive:
Cc1cccc(-n2ncc3c(N4CCCCCC4)ncnc32)c1 -16.2%
Cc1cccc(N(C)C(=S)Oc2ccc3ccccc3c2)c1 -12.9%
O=S(=O)(c1ccccc1)c1nc(-c2ccc(F)cc2)oc1N1CCCCCC1 -15.9%
CCc1ccc(NC(=O)CSc2nc3ncccc3[nH]2)cc1 -8.38%
CCOc1ccc(/C=C/C(=O)Nc2sc3c(c2C(=O)OC)CCC3)cc1 19.4%
O=C(Nc1ccc2oc(-c3cccc(Cl)c3Cl)nc2c1)c1cccc(Br)c1 -21.7%
COc1cn(CC(=O)Nc2cc(C)ccc2C)c(CN2CCCCC2)cc1=O -9.74%
O=[N+]([O-])c1cc(-c2nc(-c3ccncc3)no2)ccc1NCc1ccccc1 7.76%
O=C(c1cn(CCOc2ccc(Cl)cc2)c2ccccc12)C1CCCCC1 -18.4%
CC(=O)Nc1cccc(NC(=O)CSc2cn(CC(=O)N3CCCCCC3)c3ccccc23)c1 -1.6%
CNC(=O)C1CCC(Cn2c(=O)c3sccc3n(CC(=O)Nc3cc(F)ccc3F)c2=O)CC1 (stereo not given) -9.28%
CCOC(=O)c1cccc(NC(=O)N2CCC(CN3CCCCCC3)CC2)c1 -1.48%
CC(=O)c1c(C)oc2ccc(N(C(=O)c3ccncc3)S(=O)(=O)c3ccc(C)cc3C)cc12 -6.44%
COc1ccccc1NC(=O)C1=C(C)Nc2nc(SCc3ccccc3Cl)nn2C1c1ccncc1 (stereo not given) -1.08%
CCN(CC)S(=O)(=O)c1ccc(C(=O)NCCSc2c(-c3ccc(OC)cc3)[nH]c3ccccc23)cc1 -7.74%
COc1ccc(NC(=O)CCSc2nc(-c3ccco3)cc(C(F)(F)F)n2)cc1OC -15.5%
CCc1ccc(OCCSc2nc(-c3cccc(C)c3)nc3cc(=O)[nH]n23)cc1 -15.2%
O=C(O)c1cccnc1 -4.77%
O=C(CN1C(=O)C2(SCC(=O)N2c2ccc(F)cc2)c2ccccc21)NCCc1ccccc1 (stereo not given) -15.6%
COc1ccc(NCc2nnc3n2CCCCC3)c(OC)c1 -5.98%
CCOc1ccc(C(=O)c2cn(CC(=O)Nc3cc(OC)ccc3OC)c3cc(OC)c(OC)cc3c2=O)cc1 -2.39%
COc1ccc(-c2ccc(=O)n(CC(=O)NCCc3ccccc3)n2)cc1 3.91%
CCOC(=O)C1CCN(C(c2ccc(F)cc2)c2sc3nc(-c4ccco4)nn3c2O)CC1 (stereo not given) -13.1%
CCOc1cc(CNCCSc2nnnn2-c2ccccc2)ccc1OC -11.6%
Cc1cc(C)c(NC(=O)C(C)n2nnc3sc(-c4ccccc4)cc3c2=O)c(C)c1 (stereo not given) -14.6%
Cc1cc(C)cc(Nc2cc(C(=O)NCc3ccccc3)c3ccccc3n2)c1 7.05%
CCOC(=O)c1cc(-c2ccc(F)cc2)n(CCC(=O)NC2CCCCC2)c1C -1.12%
CCCCc1oc2ccccc2c1C(=O)c1cc(I)c(OCCN(CC)CC)c(I)c1 -1.78%
Cc1cc(C)cc(Nc2nc3c(S(=O)(=O)c4cccc(Cl)c4)nnn3c3ccsc23)c1 -17.5%
CCOC(=O)c1cccc(NC(=O)c2cc3cc4ccc(C)cc4nc3s2)c1 -2%
CSc1ccc(CCNC(=O)c2cc3c(-c4ccccc4F)nn(C)c3s2)cc1 -13.8%
Cc1cccc(NC(=O)Cn2c(=O)n(CCC(=O)N3CCc4ccccc4C3)c(=O)c3ccccc32)c1 2.22%
Nc1c(C(=O)NCc2ccccc2)nnn1Cc1cccc(Br)c1 -13.2%
CCOc1ccc(NC(=O)NCCN2CCN(c3ccccc3F)CC2)cc1 -8.84%
CC(=O)Nc1ccc(C(=O)CSc2nnc3ccc4ccccc4n23)cc1 -4.77%
CCOC(=O)c1cc2c(=O)n3ccccc3nc2n(C)c1=NC(=O)c1cc2ccccc2o1 -5.5%
Cc1ccc2c(c1)c1c(c(=O)n(-c3ccccc3C)c(=O)n1CC(=O)NCC1CCCO1)n2C (stereo not given) -2.52%
Cc1cc(=O)n2nc(N3CCC(C(=O)Nc4ccc(Br)cc4F)CC3)sc2n1 -8.53%
COc1cccc(NC(=O)c2ccc(-c3nc(COc4ccc(C)cc4)c(C)o3)cc2)c1 -21.4%
O=C(CNC(=O)c1ccc(Cl)cc1)OCc1cc(=O)n2nc(C3CCCCC3)sc2n1 -3.18%
Nc1c(C(=O)Nc2ccc(Br)cc2)sc2nc(-c3ccncc3)ccc12 -28.5%
Cc1ccc(C)c(NC(=O)CCCN2C(=O)C(c3ccccc3)Oc3cccnc32)c1 (stereo not given) -15.6%
CC(C)(C)c1nnc(NS(=O)(=O)c2ccccc2)s1 -16.9%
COc1ccc(S(=O)(=O)N(CC(=O)Nc2cccc(C)c2)c2ccc(C)cc2)cc1OC 2.91%
Cc1cc(C)c(NC(=O)CSc2nc(-c3ccc(F)cc3)nc3c2Cc2c(CO)cnc(C)c2O3)c(C)c1 -4.71%
CCCCCCCCCCCC(=O)[O][Sn]([CH2]CCC)([CH2]CCC)[O]C(=O)CCCCCCCCCCC -14%
COc1ccc(N2CCN(c3ccc(-c4nc(-c5cccc(C)c5)no4)cc3[N+](=O)[O-])CC2)cc1 -13.2%
O=C(NCCC1=CCCCC1)c1ccc2c(c1)N(Cc1cccc(Cl)c1)C(=O)c1ccccc1S2(=O)=O -7.46%
CCCCSCCCNC(=O)C1CCN(Cc2nc(-c3cccc(Br)c3)oc2C)CC1 -12%
CCOC(=O)C1=C(CN(CC)Cc2ccccc2)NC(=O)NC1c1ccc(OC(C)C)cc1 (stereo not given) -17%
COc1ccccc1CNC(=O)c1ccc(N2CCCC2)c(NC(=O)NCc2ccc(F)cc2)c1 -8.12%
CC(C)CN(CCCNC(=O)CN1N=C(c2ccccc2)CCC1=O)CC(C)C -17.7%
CCOc1ccc(CCNC(=O)c2[nH]c3cc(OC)ccc3c2Sc2ccccc2)cc1OCC -11.2%
O=C(Cn1ncc2c3ccccc3n(Cc3ccccc3F)c2c1=O)N1CCCCC1 -15.7%
CC(C)c1ccc(NC(=O)CCNS(=O)(=O)c2ccc3c(c2)CCCC(=O)N3)cc1 -5.55%
CCOC(=O)CC(NC(=O)CCc1c(C)nc2ncnn2c1C)c1ccc(OC(C)C)cc1 (stereo not given) 5.62%
CCOc1ccc(NC(=O)Cn2c(=O)cc(C)c3c(C)nn(-c4cccc(Cl)c4C)c32)cc1 -11.7%
CCOc1ccc(S(=O)(=O)c2cn(Cc3ccc(OC)cc3)c3ccc(F)cc3c2=O)cc1 -17.1%
Cn1c(=O)[nH]c(=O)c2c1nc1n2CCN1c1ccccc1 2.12%
CCOc1ccc(C(=O)N2CCN(CCc3ccccn3)CC2)cc1 -8.06%
Cc1ccc(N2CCN(S(=O)(=O)c3nnc(NC(=O)c4ccc(C(C)C)cc4)s3)CC2)cc1 -13.8%
Cc1ccc(-c2nc(S(=O)(=O)c3ccc(C)cc3)c(N3CCCCCC3)o2)cc1 4.68%
CCOc1ccc(Nc2nc(C)c(NC(=O)c3cccc(OC)c3)c(Nc3ccc(OCC)cc3)n2)cc1 -40.8%
Cc1ccccc1CSc1nc2cccnc2n1Cc1ccc(C(=O)NC2CC2)cc1 4.86%
CCOC(=O)c1ccccc1NC(=O)CSc1cn(CC(=O)N2CCOCC2)c2ccccc12 5.34%
COc1ccc(CNC(=O)C2CCC(CNS(=O)(=O)c3cccs3)CC2)cc1 (stereo not given) -3.68%
CCOc1ccc(NC(=O)CN2C(C(=O)OC)=C(c3ccccc3)c3cc(Cl)ccc3S2(=O)=O)cc1 -9.89%
COC(=O)C1=C(c2ccccc2)c2ccccc2S(=O)(=O)N1CC(=O)Nc1ccc(OC)cc1OC -3.35%
Cc1cc(=O)[nH]c2nnc(SCc3ccc(Cl)cc3)n12 -16.3%
Cc1ccc(Cl)cc1-n1ncc2c(N3CCC(C)CC3)ncnc21 -25.9%
Cc1ccc(CNC(=O)CN2CCN(Cc3ccc(F)cc3)C2=O)cc1 -13.8%
Cc1cc2nc(-c3cccc(NC(=O)COc4ccc(Cl)c(C)c4)c3)oc2cc1C -6.37%
Cc1cccc(N(C)S(=O)(=O)c2c(C(=O)N3CCCCCC3)c(C)n(C)c2C)c1 0.706%
O=C(NCc1ccccc1)C1CCN(S(=O)(=O)c2ccc3[nH]c(=O)ccc3c2)CC1 -16%
COc1ccc(NC(=O)c2c(NCc3cccc(F)c3)sc3c2CCCC3)c(OC)c1 -20.1%
COc1ccccc1NC(=O)C1CCN(S(=O)(=O)c2cn(C)cn2)CC1 -21.9%
COc1ccccc1-c1cc(NC(=O)COc2ccc(C)c(C)c2)n(-c2ccccc2)n1 -8.41%
COc1ccc(OC)c(NC(=O)CN2CCCN(Cc3cc(C)ccc3C)S2(=O)=O)c1 -10.4%
COc1ccc(-c2cc(C(F)(F)F)nc(SCC(=O)NCc3ccc(Cl)cc3)n2)cc1 -29.7%
CC(C)OCc1cc(CN2CCN(c3ccccc3)CC2)c(O)c2ncccc12 -16.3%
Cc1cccc2c1-c1sc(C(=O)N3CCN(c4cccc(Cl)c4)CC3)cc1CO2 -7.67%
CCOc1ccc(CCNC(=O)c2cnc3sc(N4CCCCCC4)nn3c2=O)cc1 8.66%
Cc1ccc(C)c(C(=O)COC(=O)CCCC(=O)Nc2cc(C(F)(F)F)ccc2Cl)c1 -8.46%
Cc1cccc(CC(=O)NCCc2csc(-c3ccc(C(F)(F)F)cc3)n2)c1 0.234%
CC1=C(C(=O)Nc2ccc(F)cc2F)C2(CCCCCC2)OC1=O 3.87%
CCOC(=O)c1ccc(N2C(=O)c3n[nH]c(-c4ccco4)c3C2c2ccc(F)cc2)cc1 (stereo not given) -11.7%
COc1ccccc1CNC(=O)C(CC(C)C)N1Cc2ccccc2C1=O (stereo not given) -10.6%
O=C(CSc1nccn1Cc1ccc(Cl)cc1)NCc1ccccc1 -5.07%
O=C(CN1C(=O)C2(SCC(=O)N2c2ccc(F)c(F)c2)c2ccccc21)Nc1ccccc1F (stereo not given) -22.4%
COc1cc(C2C(C(=O)Nc3ccccc3)=C(C)Nc3nc(SCc4ccccc4F)nn32)cc(OC)c1OC (stereo not given) 14.2%
CCOC(=O)c1c(S(=O)(=O)N2CCC(C(=O)N3CCN(c4cc(C)ccc4C)CC3)CC2)c(C)n(C)c1C -25.6%
Cc1sc2c(c1C)c(=O)n(-c1ccc(Cl)cc1)c(=O)n2Cc1c(F)cccc1Cl -2.31%
CCOc1ccccc1CNS(=O)(=O)c1csc(C(N)=O)c1 -15.7%
Cc1ccc(-c2cc(C(=O)N3CCN(c4ccccc4)CC3)c3ccccc3n2)cc1C -21.1%
CC1CCN(S(=O)(=O)c2cc(C(=O)Nc3ccc(Br)cc3F)n(C)c2)CC1 3.29%
